# Data as given in PubChem BioAssay (NCI).
# The source holds several records for some structures; these can differ, active in one and inactive in another.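 Compound tested at a single concentration for 48 hours in 96-well plates; a percent growth value below 10 was scored as active.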 Certain results were filed several times, with different values. This is not the full list of results. An entry can have further records. Values that stand side by side repeat one measurement (runs, samples, wells, individuals or studies). Records carry a tag for their origin. A, B and so on number the origins entry by entry. Dates in brackets are months of testing.
# Tests used:
# Assay in all cases: NCI-60 one-dose screen, 48 h (100 = growth as untreated, 0 = no growth, -100 = all killed)
# Conditions in all cases: 100 µM
# [1] = test system: UACC-62 melanoma
# [2] = test system: TK-10 renal
# [3] = test system: MCF7 breast
compound,measurement,setting,value
COC(=O)C1=COC(C)C2CN3CCc4c([nH]c5cc(OC)c(OC)cc45)C3CC12 (stereo not drawn),growth,[1],"inactive: 10.7% [sample A, 1996-05] and active: -88.8% [sample A, 1996-05] and inactive: 73.6%, 10% [sample B, 1996-05]"
same,growth,[2],"inactive: 52% [sample A, 1996-05] and active: -80.6% [sample A, 1996-05] and inactive: 107%, 30.7% [sample B, 1996-05]"
same,growth,[3],"active: -12.4%, -60.4% [sample A, 1996-05] and inactive: 75.6% [sample B, 1996-05] and active: 3.42% [sample B, 1996-05]"
